# Results taken from the supplement of paper PMC12217912.
# Some of the results follow. Sequences were assembled here from the parent chain. Inactive controls read about 0.05.
# B1: TEV protease; numbered along this chain (parent)
# chain: MGESLFKGPRDYNPISSSICHLTNESDGHTTSLYGIGFGPFIITNKHLFRRNNGTLVVQSLHGVFKVKDTTTLQQHLVDGRDMIIIRMPKDFPPFPQKLKFREPQREERICLVTTNFQTKSMSSMVSDTSCTFPSGDGIFWKHWIQTKDGQCGSPLVSTRDGFIVGIHSASNFTNTNNYFTSVPKNFMELLTNQEAQQWVSGWRLNADSVLWGGHKVFMVKPEEPFQPVKEATQL
# Variants of: B1
# Test: raw area under fraction-flipped curve 0-4 h after induction (AUC4h, not background-subtracted), DNA-recorder readout of cleavage of the substrate (dimensionless); higher = more cleavage of the substrate by the protease variant
# Details: temperature: 34 °C; time window: 0-4 h after rhamnose induction
# Method: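 In vivo DNA recorder in E. coli TOP10(DE3) ΔrhaA at 34 °C. Each TEVp single-site mutant (parent TEVp 0) is paired with a single-site variant of the 7-mer TEVs (canonical ENLYFQ|S). The substrate sits between flexible linkers in a Bxb1-sfGFP-TEVs-SsrA fusion, so cleavage stabilises Bxb1 and speeds flipping of a recombination array, read by NGS. The value is the raw area under the fraction-flipped curve over 0-4 h after rhamnose induction (AUC4h), with ≥20 reads per time point. It is not background-subtracted; inactive controls average about 0.047.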
# 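Note: Bxb1 expression induced with 0.2% (w/v) L-rhamnose at OD600 near 0.5, cultures sampled hourly, flipped fraction per protease–substrate barcode pair counted by paired-end Illumina sequencing.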
Variant,area with substrate ENLYAQS,area with substrate ENLYDQS,area with substrate ENLYEQS,area with substrate ENLYHQS,area with substrate ENLYKQS,area with substrate ENLYLQS,area with substrate ENLYNQS,area with substrate ENLYPQS,area with substrate ENLYQQS,area with substrate ENLYRQS,area with substrate ENLYVQS,area with substrate ENLYWQS,area with substrate ENLYYQS,area with substrate ENLYGQS,area with substrate ENLYIQS,area with substrate ENLYMQS,area with substrate ENLYSQS,area with substrate ENLYTQS,area with substrate ENLYCQS
MGESLFKGPRDYNYISSSICHLTNESDGHTTSLYGIGFGPFIITNKHLFRRNNGTLVVQSLHGVFKVKDTTTLQQHLVDGRDMIIIRMPKDFPPFPQKLKFREPQREERICLVTTNFQTKSMSSMVSDTSCTFPSGDGIFWKHWIQTKDGQCGSPLVSTRDGFIVGIHSASNFTNTNNYFTSVPKNFMELLTNQEAQQWVSGWRLNADSVLWGGHKVFMVKPEEPFQPVKEATQL [P14Y],0.0705,0.0652,0.0745,0.0534,0.0697,0.0783,0.0713,0.0474,0.0627,0.0658,0.109,0.0786,0.0622,,,,,,
MGESLFKGPRDYNPISSSICHLTNESDGHTTSLYGIGFGPFIITNKHLFRRNNGTLVVQSLHGVFKVKDTTTLQQHLVDGRDMIIIRMPKDFPPFPQKLKFREPQREERICLVTTNFQTKSMSSMVSDTSCTFPSGDGIFWKHWIQTKDGQCGSPLVSTRDGFIVGIHSASNFTNTNNYFTSVPKNFMELLTNQEAQQWVSGWRLNADSVLWGGHKVFSVKPEEPFQPVKEATQL [M219S],0.0746,0.0636,0.072,0.0693,0.0719,0.0779,0.0632,0.0664,,,0.0806,0.0908,,0.063,0.0607,0.0795,0.0563,,
MGESLFKGPRDYNPISSSICHLTNESDGHTTSLYGIGFGPFIITNKHLFRRNNGTLVVQSLHGVFKVKDTETLQQHLVDGRDMIIIRMPKDFPPFPQKLKFREPQREERICLVTTNFQTKSMSSMVSDTSCTFPSGDGIFWKHWIQTKDGQCGSPLVSTRDGFIVGIHSASNFTNTNNYFTSVPKNFMELLTNQEAQQWVSGWRLNADSVLWGGHKVFMVKPEEPFQPVKEATQL [T71E],0.0619,,0.0661,0.0588,0.0504,,0.0732,0.0656,0.0812,,,0.0625,,0.0733,,0.0557,0.0623,0.0634,
MGESLFKGPRDYNPISSSICHLTNESDGHTTSLYGIGFMPFIITNKHLFRRNNGTLVVQSLHGVFKVKDTTTLQQHLVDGRDMIIIRMPKDFPPFPQKLKFREPQREERICLVTTNFQTKSMSSMVSDTSCTFPSGDGIFWKHWIQTKDGQCGSPLVSTRDGFIVGIHSASNFTNTNNYFTSVPKNFMELLTNQEAQQWVSGWRLNADSVLWGGHKVFMVKPEEPFQPVKEATQL [G39M],0.0404,0.0416,0.0483,0.0452,0.041,0.0471,,0.0476,0.0381,0.0383,,0.0378,0.0428,0.0451,0.0384,0.0388,,,
MGESLFKGPRDYNPISSSICALTNESDGHTTSLYGIGFGPFIITNKHLFRRNNGTLVVQSLHGVFKVKDTTTLQQHLVDGRDMIIIRMPKDFPPFPQKLKFREPQREERICLVTTNFQTKSMSSMVSDTSCTFPSGDGIFWKHWIQTKDGQCGSPLVSTRDGFIVGIHSASNFTNTNNYFTSVPKNFMELLTNQEAQQWVSGWRLNADSVLWGGHKVFMVKPEEPFQPVKEATQL [H21A],0.0642,0.0693,0.0713,0.0688,0.0568,0.0726,0.0896,0.0614,0.0689,0.059,0.0953,,0.0822,0.0613,0.111,0.107,0.087,,
MGESLFKGPRDYNPISSSICHLTNESDGHTTSLYGIGFGPFIITNKHLFPRNNGTLVVQSLHGVFKVKDTTTLQQHLVDGRDMIIIRMPKDFPPFPQKLKFREPQREERICLVTTNFQTKSMSSMVSDTSCTFPSGDGIFWKHWIQTKDGQCGSPLVSTRDGFIVGIHSASNFTNTNNYFTSVPKNFMELLTNQEAQQWVSGWRLNADSVLWGGHKVFMVKPEEPFQPVKEATQL [R50P],0.0675,0.0668,0.055,0.0543,0.0583,,0.0673,0.0657,0.0658,0.0062,0.135,0.0714,0.0609,0.0665,0.0965,0.068,,0.0611,0.0757
MGESLFKGPRDYNPISSSICHLTNESDGHTTSLYGIGFGPFIITTKHLFRRNNGTLVVQSLHGVFKVKDTTTLQQHLVDGRDMIIIRMPKDFPPFPQKLKFREPQREERICLVTTNFQTKSMSSMVSDTSCTFPSGDGIFWKHWIQTKDGQCGSPLVSTRDGFIVGIHSASNFTNTNNYFTSVPKNFMELLTNQEAQQWVSGWRLNADSVLWGGHKVFMVKPEEPFQPVKEATQL [N45T],0.0633,0.0633,0.0689,0.0567,0.0333,0.0685,0.0627,0.0564,0.0713,0.0522,0.104,0.0599,0.0475,0.0552,0.0719,0.0786,0.0676,0.0697,0.087
MGESLFKGPRDYNPISSSICHLTNESDGHTTSLYGWGFGPFIITNKHLFRRNNGTLVVQSLHGVFKVKDTTTLQQHLVDGRDMIIIRMPKDFPPFPQKLKFREPQREERICLVTTNFQTKSMSSMVSDTSCTFPSGDGIFWKHWIQTKDGQCGSPLVSTRDGFIVGIHSASNFTNTNNYFTSVPKNFMELLTNQEAQQWVSGWRLNADSVLWGGHKVFMVKPEEPFQPVKEATQL [I36W],0.0655,,0.0654,0.041,,0.0309,0.0443,0.0712,,0.0542,0.0582,0.0506,0.105,0.0624,,0.056,0.0429,0.036,0.0634
MGESLFKGPRDYNPISSSICHLTEESDGHTTSLYGIGFGPFIITNKHLFRRNNGTLVVQSLHGVFKVKDTTTLQQHLVDGRDMIIIRMPKDFPPFPQKLKFREPQREERICLVTTNFQTKSMSSMVSDTSCTFPSGDGIFWKHWIQTKDGQCGSPLVSTRDGFIVGIHSASNFTNTNNYFTSVPKNFMELLTNQEAQQWVSGWRLNADSVLWGGHKVFMVKPEEPFQPVKEATQL [N24E],0.0659,0.051,0.0671,0.0635,0.0613,0.0692,0.0623,0.058,0.0667,0.0678,0.0906,0.0641,0.0574,0.0633,0.138,,0.0665,,0.0646
MGESLFKGPRDYNPISSSICHLTNESDGHTTSLYGIGFGPFIITNKHLFRRNNGTLVVQSLHGVFKVKDTTTLQQHLVDGRDMIIIRMPKDFPPFPQKLKFREPQREERICLVTTNFQTKSMSSMVSDTSCTFPSGDGIFWKHWIQTKDGQCGSPLVSTRAGFIVGIHSASNFTNTNNYFTSVPKNFMELLTNQEAQQWVSGWRLNADSVLWGGHKVFMVKPEEPFQPVKEATQL [D161A],0.0686,0.0512,0.0849,0.0646,0.0343,0.061,0.0807,0.0562,,0.0582,0.0628,0.0527,,0.0469,0.0699,0.0486,0.0729,0.0525,
MGESLFKGPRDYNPISSSICHLTNESDGHTTSLYGIGFGPFIITNKHLFRRNNGTLVVQSLHGVFKVKDTTTLQQHLVDGRDMIIIRMPKDFPPFPQKLKFREPQREERGCLVTTNFQTKSMSSMVSDTSCTFPSGDGIFWKHWIQTKDGQCGSPLVSTRDGFIVGIHSASNFTNTNNYFTSVPKNFMELLTNQEAQQWVSGWRLNADSVLWGGHKVFMVKPEEPFQPVKEATQL [I110G],0.059,0.0503,0.0563,0.0572,,,0.0511,,,0.0303,0.0695,,,0.0445,0.0574,0.0576,0.0512,0.0517,
MGESLFKGPRDYNPISSSICHLTNESDGHTTSLYGIGFGPFIITNKHLFRRNNGTLVVQSLHGVLKVKDTTTLQQHLVDGRDMIIIRMPKDFPPFPQKLKFREPQREERICLVTTNFQTKSMSSMVSDTSCTFPSGDGIFWKHWIQTKDGQCGSPLVSTRDGFIVGIHSASNFTNTNNYFTSVPKNFMELLTNQEAQQWVSGWRLNADSVLWGGHKVFMVKPEEPFQPVKEATQL [F65L],0.0755,0.0552,0.0584,,,0.0783,,0.097,,0.0545,,0.1,,0.0679,,0.101,,,
MGESLFKGPRDYNPISSSICHITNESDGHTTSLYGIGFGPFIITNKHLFRRNNGTLVVQSLHGVFKVKDTTTLQQHLVDGRDMIIIRMPKDFPPFPQKLKFREPQREERICLVTTNFQTKSMSSMVSDTSCTFPSGDGIFWKHWIQTKDGQCGSPLVSTRDGFIVGIHSASNFTNTNNYFTSVPKNFMELLTNQEAQQWVSGWRLNADSVLWGGHKVFMVKPEEPFQPVKEATQL [L22I],0.0793,0.0626,0.0641,0.0687,0.0455,,0.0832,0.0719,0.0556,0.0618,0.126,0.0869,,0.0247,0.122,0.0907,,0.0821,
MGESLFKGPRDYNPISSSICHLTNESDGHTTSLYGIGFGPFIITNKHLFRRNNGTLVVQSLHGVFKVKDTTTLQQHLVDGRDMIIIRMPKDFPPFPQKLKFREPQREERICLVTTNFQTKSMSSMVSDTSCTFPSGDGIFWKHWIQTKDGQCGSPLVSTRDGFIVGIHSASNFTNTLNYFTSVPKNFMELLTNQEAQQWVSGWRLNADSVLWGGHKVFMVKPEEPFQPVKEATQL [N177L],0.0976,0.047,0.0661,0.0628,0.0769,0.101,0.066,0.0853,0.0774,,,0.0842,0.0388,0.0795,0.136,0.123,0.0935,,0.15
MGESLFKGPRDYNPISSSICHLTNESDGHTTSLYGIGFGPFIITNKHLFRRNNGTLVVQSLHGVFKVKDTTTLQQHLVDGRDMIIIRMPKDFPPFPQKLKFREPQREEGICLVTTNFQTKSMSSMVSDTSCTFPSGDGIFWKHWIQTKDGQCGSPLVSTRDGFIVGIHSASNFTNTNNYFTSVPKNFMELLTNQEAQQWVSGWRLNADSVLWGGHKVFMVKPEEPFQPVKEATQL [R109G],0.0623,0.0608,0.0678,0.0731,0.0674,,0.0682,,0.07,0.0679,,0.0755,0.0519,0.0657,0.135,0.0804,0.0811,,
MGESLFKGPRDYNPISSSICHLTNESDGHTTSLYGIGFGPFIITNKHLFRRNNGTLVVQSLHGVFKVKDTTTLQQHLVDGRDMIIIRMPKDFPPFPQKLKFREPQREEIICLVTTNFQTKSMSSMVSDTSCTFPSGDGIFWKHWIQTKDGQCGSPLVSTRDGFIVGIHSASNFTNTNNYFTSVPKNFMELLTNQEAQQWVSGWRLNADSVLWGGHKVFMVKPEEPFQPVKEATQL [R109I],0.082,0.0599,0.0611,0.0496,0.0598,0.0712,0.0589,0.063,0.0731,0.0683,0.103,0.0726,0.1,0.066,0.114,0.0901,0.0317,,
MGESLFKGPRDYNPISSSICHLTNESDGHTTSLYGIGFGPFIITNKHLFRRNNGTLVVQSLHGVFKVKDTTTLQQHLVDGRDMIIIRMPKDFPPFPQKLKFREPQREERICLVTTNFQTKSMSSMASDTSCTFPSGDGIFWKHWIQTKDGQCGSPLVSTRDGFIVGIHSASNFTNTNNYFTSVPKNFMELLTNQEAQQWVSGWRLNADSVLWGGHKVFMVKPEEPFQPVKEATQL [V126A],0.0694,0.0699,0.077,0.076,0.0502,0.105,0.0724,0.0772,0.0607,0.0591,,0.0878,0.0616,0.0644,,0.0941,0.0686,,0.0718
